Measured values taken from the supplement of paper PMC7826260.
Some of the results follow. Cleavage of a single-stranded DNA pool by Rep nickase domains was read by sequencing (3 µM enzyme, 1 h, 37 °C); shown is the middle of each 90-letter strand. A value is the log2 ratio of uncut reads to the pool without enzyme; strong cutting gives strongly negative numbers. There is no active / inactive call. The scaling is to total reads; uncut strands gain when others are lost, and binding without cutting may add a little.

The sequences below were run on T1, Rep nickase domain of tomato golden mosaic virus (assay: uncleaved DNA left, log2 of reads against the no-enzyme library (log2 ratio); higher = less cleavage (more negative = more Rep cleavage of the k-mer); sequences stand for … in CTCGTCCG…ACCGGAGA).
T1 sequence (residues 1-124, tag not shown): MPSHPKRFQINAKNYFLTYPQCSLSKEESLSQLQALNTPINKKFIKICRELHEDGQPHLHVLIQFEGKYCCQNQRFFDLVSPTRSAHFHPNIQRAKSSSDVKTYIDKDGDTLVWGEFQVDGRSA
Protocol: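 A pool of 90-nt single-stranded DNAs with seven random bases just before the constant AC of the nick site (name = the seven bases) was cut by 3 µM recombinant His6-SUMO-tagged Rep nickase domain (300 nM DNA, 50 mM HEPES pH 8.0, 50 mM NaCl, 1 mM MnCl2, 1 h, 37 °C, three replicates). Uncut DNA was amplified and sequenced.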
TTCAGCC was tested, and the “uncleaved DNA left (log2)” value was -0.0993.
For TCGAACG, the “uncleaved DNA left (log2)” value was -0.0281.
ATGTTGC was tested, and the “uncleaved DNA left (log2)” value was -0.0911.
For TAATGTG, the “uncleaved DNA left (log2)” value was -0.0749.
TTGTAAA was tested, and the “uncleaved DNA left (log2)” value was 0.075.
TTAATGG was tested, and the “uncleaved DNA left (log2)” value was 0.244.
In the case of TGTAAAA, the “uncleaved DNA left (log2)” value is reported as 0.0531.
In the case of TCTTTAG, the “uncleaved DNA left (log2)” value is reported as -0.00119.
With TCCGCCA the “uncleaved DNA left (log2)” value was -0.0277.
With CATCTAT the “uncleaved DNA left (log2)” value was -0.185.
With GGGCCAG the “uncleaved DNA left (log2)” value was 0.095.
In the case of CGGATAC, the “uncleaved DNA left (log2)” value is reported as 0.0519.
With GATAGAA the “uncleaved DNA left (log2)” value was 0.0573.
For AACATAG, the “uncleaved DNA left (log2)” value was 0.141.
With TTGGTAA the “uncleaved DNA left (log2)” value was 0.134.
In the case of GGACAGT, the “uncleaved DNA left (log2)” value is reported as -0.065.
With TCTGAAG the “uncleaved DNA left (log2)” value was -0.0932.
In the case of GGGGCAT, the “uncleaved DNA left (log2)” value is reported as 0.0158.
TTTTGGG was tested, and the “uncleaved DNA left (log2)” value was 0.0307.
For TAGGTTA, the “uncleaved DNA left (log2)” value was 0.113.
For CATGCAC, the “uncleaved DNA left (log2)” value was -0.141.
CAATTGC was tested, and the “uncleaved DNA left (log2)” value was -0.00555.
For CGATGAC, the “uncleaved DNA left (log2)” value was -0.158.
CGGCCGG was tested, and the “uncleaved DNA left (log2)” value was 0.21.
AGCTTCT was tested, and the “uncleaved DNA left (log2)” value was 0.0113.
For GGCCCAG, the “uncleaved DNA left (log2)” value was 0.0763.
In the case of GTCTCAG, the “uncleaved DNA left (log2)” value is reported as 0.162.
In the case of TTAATTG, the “uncleaved DNA left (log2)” value is reported as -0.0928.
GAACTCA was tested, and the “uncleaved DNA left (log2)” value was -0.0523.
AGGTTAA was tested, and the “uncleaved DNA left (log2)” value was 0.0273.
GAACCTC was tested, and the “uncleaved DNA left (log2)” value was 0.0335.
TGTTTAC was tested, and the “uncleaved DNA left (log2)” value was 0.23.
For ATGAATT, the “uncleaved DNA left (log2)” value was -0.224.
With GTACTCT the “uncleaved DNA left (log2)” value was 0.0207.
In the case of TCCCTTA, the “uncleaved DNA left (log2)” value is reported as 0.0211.
With CCTAGCG the “uncleaved DNA left (log2)” value was -0.091.
AAAGGCA was tested, and the “uncleaved DNA left (log2)” value was 0.00827.
For CGGGGGC, the “uncleaved DNA left (log2)” value was 0.101.
With ATGAGTC the “uncleaved DNA left (log2)” value was -0.0199.
With AACTCGA the “uncleaved DNA left (log2)” value was -0.0442.
